# Measurements taken from PubChem BioAssay AID1347120 (National Center for Advancing Translational Sciences (NCATS), 2019).
# About 930 (0.24%) of roughly 390,000 compounds were called active. Inconclusive means that the source gave no clear call. Such entries were picked first, then a sample of the others. The call rests on the fitted dose curve; in most records, active means well fitted activation curve with a large enough effect; inconclusive means small, poorly fitted or top-dose-only effect; inactive means no such curve, though single readings can be large or run the other way. Potencies of inconclusive entries are doubtful fits and often do not repeat.
# Test: qHTS for Suppressors of FUS Proteinopathy: Primary screen using FUS-linked yeast assay; further: nearly all actives have a fitted effect of over 55% in size
# Conditions: S. cerevisiae FUS-expressing, OD600, 24 h; Potency: growth rescue; series mostly up to 76.6 µM
# Method in brief: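 Quantitative HTS measuring growth restoration of FUS-toxic yeast. Galactose-induced cells (OD 0.005) were exposed 24hr at 30C to compounds at several concentrations, then absorbance at 600 nm was recorded.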
# Potency means the concentration at half of the fitted maximal effect; tags describe the fitted curve by direction and shape.
row,SMILES,Potency
1,c1cc(-c2ccoc2)n2ccnc2c1,inactive
2,COc1ccc(C2=CC3=C(Br)C(=O)C(C)(OC(=O)c4cccs4)C(=O)C3=CO2)cc1 (configuration not stated),inactive
3,Cc1ccc(-c2csc3nc(SCC(=O)N(C)C)n(Cc4ccccc4)c(=O)c23)cc1,"inconclusive: 31.6 µM [activator, single point]"
4,COC(=O)[C@]12C[C@H](CC(=O)N3CCOCC3)C(=O)N(Cc3cccc4ccccc34)C1=C[C@H](C(C)(C)C)O[C@@H]2C,active: 22.4 µM
5,CCOc1ccc(CCNC(=O)c2cc3sccc3n2Cc2ccccc2)cc1OCC,inactive
6,CC(C)C(=O)N1CCc2cc(-c3csc(N)n3)ccc21,"inconclusive: 11.2 µM [activator, partial curve, poor fit]"
7,O=C(Nc1ccc(N2CCOCC2)cc1)c1ccc2nc(-c3ccco3)c(-c3ccco3)nc2c1,"inconclusive: 17.8 µM [activator, partial curve, poor fit]"
8,O=C(Nc1ccc(F)cc1)N(Cc1ccco1)Cc1cc2cc3c(cc2[nH]c1=O)OCO3,inactive
9,COCCCNc1nc2ccccc2nc1NS(=O)(=O)c1ccc(OC)cc1,inactive
10,CCN(CC)c1ccc(S(=O)(=O)N2CCOCC2)cc1NC(=O)COC(=O)/C=C/c1ccco1,"inconclusive: 35.5 µM [activator, single point]"
11,CCCCc1ccc(NC(=O)CSC2=C(C#N)C(c3ccco3)C3=C(CCCC3=O)N2)cc1 (configuration not stated),"inconclusive: 12.6 µM [activator, single point]"
12,CCOC(=O)c1ccc(Oc2nc(OC)cc(OC)n2)cc1,inactive
13,Cc1ccc(-n2ncc(C(=O)NCCCN3CCc4ccccc4C3)c2C2CCN(C(=O)OC(C)(C)C)CC2)c(C)c1,"inconclusive: 35.5 µM [activator, single point]"
14,CC(C)(C)C(=O)Nc1ccc(C(=O)Nc2cc(NC(=O)c3ccc(NC(=O)C(C)(C)C)cc3)cc(C(=O)O)c2)cc1,"inconclusive: 22.4 µM [activator, partial curve, poor fit]"
15,COCCC(C(=O)Oc1c(C(C)(C)C)cc(C)cc1C(C)(C)C)c1ccccc1 (configuration not stated),inactive
16,CCCCOc1ccc(C2C(=O)N(C3CCCCC3)CC(=O)N2CCCC)cc1 (configuration not stated),"inconclusive: 50.1 µM [activator, single point]"
17,CCOc1cc(N2CCOCC2)c(OCC)cc1NC(=O)c1ccc2ncsc2c1,"inconclusive: 28.2 µM [activator, single point]"
18,CN1/C(=c2/s/c(=C3/C(=O)N(c4ccccc4)NC3=Nc3ccccc3)n(C)c2=O)C(C)(C)c2ccccc21,"inconclusive: 20 µM [activator, single point]"
19,COCc1cc(C)[nH]c(=O)c1C#N,"inconclusive: 28.2 µM [activator, single point]"
20,COc1ccc2c(c1)-c1nc(NC(=O)c3cc(OC)c(OC)c(OC)c3)sc1CC2,"inconclusive: 39.8 µM [activator, partial curve, poor fit]"
21,COc1ccc(C(=O)NC(=S)Nc2ccccc2N2CCOCC2)cc1[N+](=O)[O-],inactive

row,SMILES,Potency
1,CC1CCc2nc(NC(=O)CN3CCN(c4ccc(F)cc4)CC3)sc2C1 (configuration not stated),"inconclusive: 28.2 µM [activator, partial curve, poor fit]"
2,CC(C)c1ccc(NC(=O)c2sccc2-n2cccc2)cc1,"inconclusive: 14.1 µM [activator, partial curve]"
3,CCOC(=O)c1cccc(NC(=O)[C@H](CSCc2ccccc2)N2Cc3ccccc3C2=O)c1,inactive
4,O=C(COC(=O)c1cccc(-n2cnnn2)c1)Nc1c(Cl)cccc1C(F)(F)F,"inconclusive: 50.1 µM [activator, single point]"
5,COCCN1Cc2cc3cc(C)ccc3nc2SC1=Nc1cccc(OC)c1,inactive
6,CCCN(C(=O)COC(=O)CNC(=O)c1ccc2ccccc2c1)c1c(N)n(Cc2ccccc2)c(=O)[nH]c1=O,"inconclusive: 39.8 µM [activator, single point]"
7,COc1cccc(C(C(=O)NC(C)(C)C)N(CCc2ccccc2)C(=O)CCC(=O)Nc2cc(C)on2)c1OC (configuration not stated),"inconclusive: 39.8 µM [activator, partial curve, poor fit]"
8,CCN(CC)S(=O)(=O)c1ccc2[nH]c(=O)cc(C(=O)Nc3ccc(C)c(S(=O)(=O)N(CC)CC)c3)c2c1,"inconclusive: 25.1 µM [activator, single point]"
9,COc1cc2oc(=O)cc(-c3cccc(-c4ccc(C(F)(F)F)cc4)c3)c2c(OC)c1OC,"inconclusive: 25.1 µM [activator, single point]"
10,CN(C(=O)c1cccc(NC(=O)Cc2ccc(NC(=O)C3CCCN(C(=O)C4CCCCC4)C3)cc2)c1)C1CCCCC1 (configuration not stated),"inconclusive: 50.1 µM [activator, single point]"
11,COC(=O)[C@]12CCCCC=C1N(Cc1ccc(Cl)cc1Cl)C(=O)[C@H](CC(=O)NCc1cccc(C(F)(F)F)c1)C2,"inconclusive: 39.8 µM [activator, single point]"
12,O=C(CSc1ccc(-c2ccccn2)nn1)NCc1ccc(F)cc1,"inconclusive: 28.2 µM [activator, partial curve, poor fit]"
13,COc1ccc(CNC(=O)Cc2csc3nc(-c4ccc(F)cc4)cn23)cc1,inactive
14,O=C1NC2(CCCc3ccccc32)C(=O)N1Cc1nnc(-c2ccccc2Br)o1 (configuration not stated),"inconclusive: 35.5 µM [activator, single point]"
15,CC(NC(=O)Cn1nc(-c2ccccc2)c2ccccc2c1=O)c1ccccc1 (configuration not stated),"inconclusive: 25.1 µM [activator, partial curve, poor fit]"
16,COc1ccc(C2CC(=O)N(CC(=O)Nc3ccc(C)c(Cl)c3)c3ccccc3S2)cc1OC (configuration not stated),"inconclusive: 11.2 µM [activator, partial curve]"
17,CCOc1ccc(NC(=O)C(=O)NCC(c2cccnc2)N2CCc3ccccc32)cc1 (configuration not stated),inactive
18,Cc1cc(NS(=O)(=O)c2ccc(NC(=O)CSc3nnc(SCc4ccc(Cl)cc4)s3)cc2)nc(C)n1,"inconclusive: 25.1 µM [activator, partial curve, poor fit]"
19,Cc1ccc(C)c(N2CCN(C(=O)c3cc(S(=O)(=O)N4CCOCC4)ccc3F)CC2)c1,"inconclusive: 22.4 µM [activator, partial curve]"
20,O=C(CSc1nc2ccccc2n1Cc1ccccc1)NN=C/C=C/c1ccccc1,"inconclusive: 8.91 µM [activator, partial curve, poor fit]"
21,CCOC1=C2[C@@H](CN(S(=O)(=O)c3ccccc3C)[C@H]2c2ccc(Cl)cc2)[C@H]2C(=O)N(C3CCCCC3)C(=O)[C@H]2C1,"inconclusive: 20 µM [activator, single point]"

row,SMILES,Potency
1,COC(=O)c1sc(-c2ccc(C(C)(C)C)cc2)cc1NC(=O)c1ccccc1C(=O)O,inactive
2,O=S(=O)(Nc1cccc(-c2cn3ccsc3n2)c1)c1ccc(F)cc1,"inconclusive: 44.7 µM [activator, single point]"
3,Cc1nc(C)c(CCNS(=O)(=O)c2ccc(F)cc2)s1,inactive
4,O=c1c2c(-c3ccccc3)csc2nc2n1CCC2,"inconclusive: 35.5 µM [activator, single point]"
5,COc1ccccc1CN(C)C(=O)C(c1ccccc1)c1ccccc1,"inconclusive: 14.1 µM [activator, partial curve, poor fit]"
6,COC(=O)C1(Cc2cc(-c3ccc([N+](=O)[O-])cc3)no2)CCN(C(=O)OC(C)(C)C)CC1,"inconclusive: 25.1 µM [activator, single point]"
7,Cc1ccc(NC(=O)CN2C(=O)COc3ccc(S(=O)(=O)NC4CCCC4)cc32)c(Cl)c1,"inconclusive: 12.6 µM [activator, partial curve]"
8,Cc1ccc(C(=O)c2cn(Cc3ccccc3C)c3nc(C)ccc3c2=O)cc1,active: 25.1 µM
9,COc1ccc(-c2cn3c(n2)sc2cc(C(=O)NCc4cccc(F)c4)ccc23)cc1,inactive
10,Cc1ccc(C2(C)NC(=O)N(CC(=O)Nc3ccccc3C(=O)NC3CCCC3)C2=O)cc1 (configuration not stated),"inconclusive: 20 µM [activator, partial curve, poor fit]"
11,O=C(Nc1ccc(N=Nc2ccccc2)cc1)c1ccccc1Cl,"inconclusive: 7.94 µM [activator, single point]"
12,CCCCNc1ncnc2c1cnn2-c1ccc(C)cc1C,inactive
13,CCOC(=O)C1=C(C)N(C)C(=S)NC1c1ccc(Cl)cc1Cl (configuration not stated),"inconclusive: 50.1 µM [activator, single point]"
14,COc1ccc(NC(=O)C(CC(C)C)NC(=O)C2CCCCC2)cc1 (configuration not stated),inactive
15,COc1ccccc1N1CCN(C(=O)C2CCN(S(=O)(=O)c3ccc4c(c3)CC(C)N4C(=O)C3CC3)CC2)CC1 (configuration not stated),"inconclusive: 25.1 µM [activator, partial curve]"
16,CN1c2ccc(C#CC3CC3)cc2[C@@H]2[C@@H](CCN2C(=O)C2CCOCC2)[C@H]1CO,inactive
17,COc1ccc(N2CC(C(=O)N(C)CC(=O)Nc3ccc(Cl)c(C(F)(F)F)c3)CC2=O)c(OC)c1 (configuration not stated),"inconclusive: 28.2 µM [activator, single point]"
18,O=C(CSc1ncnc2ccccc12)NCC(=O)c1ccccc1,inactive
19,CC(C)(C)c1nnc(NC(=O)C2CC(=O)N(CCc3ccc(F)cc3)C2)s1 (configuration not stated),"inconclusive: 31.6 µM [activator, partial curve, poor fit]"
20,O=C(CNC(=O)OCc1ccccc1)Oc1cc2oc(=O)cc(-c3ccccc3)c2cc1Cl,active: 12.6 µM
